The target in test [1] is T1, HA-tagged human TRAF2 (human) (UniProt Q12933).
T1 sequence: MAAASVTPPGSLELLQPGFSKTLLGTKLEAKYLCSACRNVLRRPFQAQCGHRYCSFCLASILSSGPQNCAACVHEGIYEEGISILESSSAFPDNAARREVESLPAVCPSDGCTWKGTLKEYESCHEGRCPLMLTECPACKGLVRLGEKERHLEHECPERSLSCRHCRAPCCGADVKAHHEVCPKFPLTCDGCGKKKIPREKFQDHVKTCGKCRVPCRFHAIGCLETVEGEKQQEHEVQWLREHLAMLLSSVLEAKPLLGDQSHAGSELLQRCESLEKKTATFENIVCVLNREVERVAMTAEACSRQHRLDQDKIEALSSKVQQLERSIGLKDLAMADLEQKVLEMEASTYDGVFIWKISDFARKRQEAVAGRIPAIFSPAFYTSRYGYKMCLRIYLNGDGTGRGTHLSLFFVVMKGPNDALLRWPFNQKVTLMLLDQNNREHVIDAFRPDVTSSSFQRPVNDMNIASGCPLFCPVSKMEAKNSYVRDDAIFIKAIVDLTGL
Briefly: co-IP; as a5, the cells silenced for FKBP51 (siRNA).

Test [2] deals with T1, HA-tagged human TRAF2 (human). Briefly: co-IP; HEK293 (text: HEK293T), silenced or not for FKBP51 (siRNA), transfected with combinations of HA-IKKα, -IKKβ, -IKKγ, -TAK1, -TRAF2 and Flag-FKBP51; precipitating antibody not told.
Test [3] has as its target T2, Flag-FKBP51 (pRK5 FKBP51 WT) (UniProt Q13451).
T2 sequence: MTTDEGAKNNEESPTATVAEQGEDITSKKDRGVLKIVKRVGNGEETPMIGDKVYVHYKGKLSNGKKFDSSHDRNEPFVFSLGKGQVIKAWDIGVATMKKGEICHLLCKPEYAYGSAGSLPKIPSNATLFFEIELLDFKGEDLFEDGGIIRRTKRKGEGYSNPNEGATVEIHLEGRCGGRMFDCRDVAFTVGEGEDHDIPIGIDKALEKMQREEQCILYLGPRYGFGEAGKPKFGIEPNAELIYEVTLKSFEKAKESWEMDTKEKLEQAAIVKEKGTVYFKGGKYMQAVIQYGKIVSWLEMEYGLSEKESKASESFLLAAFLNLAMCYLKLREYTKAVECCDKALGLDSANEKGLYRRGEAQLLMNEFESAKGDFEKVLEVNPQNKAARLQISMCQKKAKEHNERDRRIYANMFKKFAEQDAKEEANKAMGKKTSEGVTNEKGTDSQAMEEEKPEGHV
Briefly: co-IP; HEK293T (legends: HEK293) co-transfected with Flag-FKBP51 or its mutants and HA-tagged partners; anti-Flag immunoprecipitation, blot with anti-HA, anti-TRAF2 or anti-IKKα/β; RIPA buffer; with or without FK506 (Figure 3B); the precipitating antibody is not told for Figures 3B and 4B.

The target in test [4] is endogenous IKKγ (human (endogenous in A375)), Q9Y6K9. As to the kind of experiment: co-IP; endogenous IKKγ immunoprecipitated from whole lysates of A375 melanoma cells, control or stably knocked down for FKBP51; immunoblot. Particulars: remark: other sources report otherwise. (Immunoblotting shows a protein as a band on a membrane.)

These are yes or no findings as the source states them, for the method shown. In cells and extracts the contact can be indirect. Some binding calls cover weakened binding; strength is not graded here. For some of these results: Where a sequence is shown, tags or fusion partners need not be part of it.

Consider two molecules from article PMC4538817.

B1: HA-tagged human IKKβ (protein, UniProt O14920 1-756)
chain: MSWSPSLTTQTCGAWEMKERLGTGGFGNVIRWHNQETGEQIAIKQCRQELSPRNRERWCLEIQIMRRLTHPNVVAARDVPEGMQNLAPNDLPLLAMEYCQGGDLRKYLNQFENCCGLREGAILTLLSDIASALRYLHENRIIHRDLKPENIVLQQGEQRLIHKIIDLGYAKELDQGSLCTSFVGTLQYLAPELLEQQKYTVTVDYWSFGTLAFECITGFRPFLPNWQPVQWHSKVRQKSEVDIVVSEDLNGTVKFSSSLPYPNNLNSVLAERLEKWLQLMLMWHPRQRGTDPTYGPNGCFKALDDILNLKLVHILNMVTGTIHTYPVTEDESLQSLKARIQQDTGIPEEDQELLQEAGLALIPDKPATQCISDGKLNEGHTLDMDLVFLFDNSKITYETQISPRPQPESVSCILQEPKRNLAFFQLRKVWGQVWHSIQTLKEDCNRLQQGQRAAMMNLLRNNSCLSKMKNSMASMSQQLKAKLDFFKTSIQIDLEKYSEQTEFGITSDKLLLAWREMEQAVELCGRENEVKLLVERMMALQTDIVDLQRSPMGRKQGGTLDDLEEQARELYRRLREKPRDQRTEGDSQEMVRLLLQAIQSFEKKVRVIYTQLSKTVVCKQKALELLPKVEEVVSLMNEDEKTVVRLQEKRQKELWNLLKIACSKVRGPVSGSPDSMNASRLSQPGQLMSQPSTASNSLPEPAKKSEELVAEAHNLCTLLENAIQDTVREQDQSFTALDWSWLQTEEEEHSCLEQAS
B1: the binding result in test [1] is “no binding (condition: FKBP51 silenced (siRNA))”; in test [2] it was “binds”; in test [3] it was “binds”.

B2: endogenous IKKα, O15111 1-745 (protein)
chain: MERPPGLRPGAGGPWEMRERLGTGGFGNVCLYQHRELDLKIAIKSCRLELSTKNRERWCHEIQIMKKLNHANVVKACDVPEELNILIHDVPLLAMEYCSGGDLRKLLNKPENCCGLKESQILSLLSDIGSGIRYLHENKIIHRDLKPENIVLQDVGGKIIHKIIDLGYAKDVDQGSLCTSFVGTLQYLAPELFENKPYTATVDYWSFGTMVFECIAGYRPFLHHLQPFTWHEKIKKKDPKCIFACEEMSGEVRFSSHLPQPNSLCSLVVEPMENWLQLMLNWDPQQRGGPVDLTLKQPRCFVLMDHILNLKIVHILNMTSAKIISFLLPPDESLHSLQSRIERETGINTGSQELLSETGISLDPRKPASQCVLDGVRGCDSYMVYLFDKSKTVYEGPFASRSLSDCVNYIVQDSKIQLPIIQLRKVWAEAVHYVSGLKEDYSRLFQGQRAAMLSLLRYNANLTKMKNTLISASQQLKAKLEFFHKSIQLDLERYSEQMTYGISSEKMLKAWKEMEEKAIHYAEVGVIGYLEDQIMSLHAEIMELQKSPYGRRQGDLMESLEQRAIDLYKQLKHRPSDHSYSDSTEMVKIIVHTVQSQDRVLKELFGHLSKLLGCKQKIIDLLPKVEVALSNIKEADNTVMFMQGKRQKEIWHLLKIACTQSSARSLVGSSLEGAVTPQTSAWLPPTSAEHDHSLSCVVTPQDGETSAQMIEENLNCLGHLSTIIHEANEEQGNSMMNLDWSWLTE
For B2, the binding result in test [4] was “binds”.
